{"source": "paper PMC11169713", "about": "(Frontiers in Immunology, 2024)", "target": "biotinylated H7 A/Shanghai/02/2013 hemagglutinin (Influenza A virus A/Shanghai/02/2013 …, UniProt R4NN21, strain, biotin (site not stated))", "experiment": "mesoscale discovery (MSD) platform binding assay", "settings": "both partners purified"}
{"binder": "L5A7.5 antibody (IgG) (antibody, V domains shown) VH: QVQLQQSGPGLVKPSQTLSLTCGISGDSVSSDAAAWDWIRQSPSRGLEWLGRTFYRSRWHHDYSESVKNRITINADTSKNQFSLQLTSVTPEDTATYYCARAGVRVFGIIVNSLDYWGQGTLVTVSS VL: AIQLTQSPSSLSASVGDRVTITCRASQATSSYLAWYQQKPGKAPKLLIYAASTLQSGVPSRFSGSGSGTDFTLTITSLQPEDFATYYCQLSKTFGPGTKVEIK", "values": [{"measurement": "binding result", "result": "binds"}]}
